# This list was built around the results that the source calls inconclusive (neither active nor inactive); the mix of calls is not that of the screen. Potencies of inconclusive entries are left out as doubtful fits. Calls of active or inactive are those of the source. Calls follow the shape of the dose curve; as a rule, active = well fitted inhibition curve with a large enough effect; inconclusive = small, poorly fitted or top-dose-only effect; inactive = no such curve, though single readings can be large or run the other way.
# Target: Cytochrome P450 3A4 (Homo sapiens) (UniProt P08684)
# Experiment: qHTS Assay for Inhibitors and Substrates of Cytochrome P450 3A4 (AID 884); also: nearly all actives have a fitted effect of over 50% in size
# Settings: recombinant CYP3A4, Luciferin-PPXE luminescence; series mostly up to 57.1 µM; activity change, negative = inhibition: at the top concentration
# Protocol: NIH Molecular Libraries Screening Centers Network [MLSCN]
# NIH Chemical Genomics Center [NCGC]
# The P450 gene superfamily is involved in the metabolism and clearance of xenobiotics. This assay used human CYP3A4 to measure the dealkylation of luciferin-6' phenylpiperazinylyl (Luciferin-PPXE; […]) to luciferin. The luciferin is then measured by luminescence after the addition of a luciferase detection reagent. Luciferin-PPXE concentration in the assay was equal to its KM for CYP3A4. Inhibitors and some substrates limit the production of luciferin, and decrease measured luminescence.
# NCGC Assay Protocol Summary:
# Two uL of enzyme and substrate mix (final concentrations: 20nM CYP3A4, 25uM Luciferin-PPXE, 200mM KPO4) were dispensed into a white, solid bottom 1536-well microtiter plate. 23nL of compound was transferred by a pin tool. The plate was incubated at RT for 10 min. Two uL of an NADPH regeneration solution (Promega supplied reagent) was dispensed and the reaction was allowed to continue for 60 min at RT. Then the reaction was stopped by reconstituted luciferin detection buffer. After another 20 min of incubation the plate was read on the ViewLux (Perkin Elmer) at 60 sec exposure and 2x2 binning. This protocol was carried out with Promega-Glo reagents and further information can be found at http://www.promega.com/tbs/tb325/tb325.pdf. Data were normalized to the to AC100 inhibition (57 uM ketoconazole).
# Keywords: P450, CYP3A4, Luciferase, MLSMR, MLSCN, NIH Roadmap, qHTS, NCGC
# % is scaled to controls: 0 for no effect and ±100 for the full control effect; potency is read from the fitted curve at half-maximal effect; tags tell the direction and shape of the fitted curve.
# Chain of UniProt P08684 (P08684 whole entry, looked up): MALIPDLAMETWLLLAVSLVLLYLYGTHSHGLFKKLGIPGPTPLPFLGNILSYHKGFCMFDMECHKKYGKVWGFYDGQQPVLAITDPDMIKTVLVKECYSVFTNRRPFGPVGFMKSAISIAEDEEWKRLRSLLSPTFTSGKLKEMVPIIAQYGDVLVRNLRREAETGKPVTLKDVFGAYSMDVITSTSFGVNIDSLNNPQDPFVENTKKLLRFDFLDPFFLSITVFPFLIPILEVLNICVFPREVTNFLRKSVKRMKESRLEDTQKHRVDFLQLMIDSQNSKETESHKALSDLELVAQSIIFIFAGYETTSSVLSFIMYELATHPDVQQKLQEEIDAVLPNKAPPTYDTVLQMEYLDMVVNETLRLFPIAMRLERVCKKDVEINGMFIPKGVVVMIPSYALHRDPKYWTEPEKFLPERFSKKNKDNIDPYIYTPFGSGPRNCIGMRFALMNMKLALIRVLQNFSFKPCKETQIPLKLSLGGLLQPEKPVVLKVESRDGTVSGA
Structure (SMILES),Potency,"activity change, negative = inhibition"
O=C(C[N+]12CN3CN(CN(C3)C1)C2)c1ccc(-c2ccccc2)cc1,"inconclusive [inhibitor, partial curve]",
COc1ccc(NC(=O)N2CC[C@@]3(CCCN(C(=O)c4cccn4C)C3)C2)cc1,"inconclusive [inhibitor, full curve]",
COc1ccc([C@@H](Nc2ccccn2)c2cc(C(C)(C)C)cc(C(C)(C)C)c2O)cc1,"inconclusive [inhibitor, partial curve]",
c1ccc(/C(=N/Nc2nc3ccccc3s2)c2ccccn2)cc1,"inconclusive [inhibitor, partial curve]",
O[Si@](CCCN1CCCCC1)(c1ccc(F)cc1)C1CCCCC1,"inconclusive [inhibitor, full curve]",
NCCNS(=O)(=O)c1ccc(N)cc1,"inconclusive [inhibitor, partial curve]",
COc1ccc(-n2c(=O)c(-c3cccs3)nc3cnc(Nc4cccc(OC)c4)nc32)cc1,"inconclusive [inhibitor, full curve, poor fit]",
Cc1cc(O)c(-c2cc(O)c(C)cc2O)cc1O,"inconclusive [inhibitor, single point]",
COc1ccc(C(=O)CCN(C)C)c2ccccc12,"inconclusive [inhibitor, full curve]",
Cc1cc(O)c(C(C)C)cc1C1(c2cc(C(C)C)c(O)cc2C)OC(=O)c2ccccc21,active: 1.58 µM,
O=c1c(-c2cccs2)nc2cnc(N3CCOCC3)nc2n1Cc1ccc(F)cc1,"inconclusive [inhibitor, full curve]",
C[C@@]12CCC(=O)C=C1CC[C@H]1[C@@H]2[C@@H](O)C[C@]2(C)[C@@H]1CC[C@@]2(O)C(=O)COC(=O)C1CCCC1,"inconclusive [inhibitor, partial curve, poor fit]",
CCCCN1CCC(COC(=O)c2cc(Cl)c(N)c3c2OCCO3)CC1,"inconclusive [inhibitor, partial curve]",
COc1ccc(CNc2ncncc2-c2ccc(C(=O)N(C)C)cc2)c(OC)c1,active: 0.501 µM,
O=C(O)c1ccc(CO)o1,,inactive: 4.97%
C[C@@H]1OC(OC2CC[C@@]3(C)C(CC[C@@]4(C)C3CC=C3C5CC(C)(C)CC[C@]5(C(=O)OC5OCC(O)[C@@H](O)[C@@H]5OC5O[C@@H](C)[C@H](O[C@H]6OC(CO)C(O)C(O)C6O)C(O)C5O)C(O)C[C@@]34C)C2(C)C)C(O)C(O)[C@H]1OC1OCC(O)C(O)[C@H]1O (stereo not given in full),,inactive: -9.55%
COC(=O)c1c(OC)cc2c(c1C)Oc1c(Cl)c(O)c(Cl)c(C)c1C(=O)O2,active: 1.58 µM,
CN(Cc1cc(Br)cc(Br)c1O)Cc1c(O)ccc2ccccc12,"inconclusive [inhibitor, partial curve]",
Cn1cc(-c2nc3cncnc3n(Cc3ccccc3Cl)c2=O)c2ccccc21,"inconclusive [inhibitor, partial curve]",
Nc1ccc(N)c(Cl)c1,active: 10 µM,

Structure (SMILES),Potency,"activity change, negative = inhibition"
CCNc1ncc2nc(-c3cn(C)c4ccccc34)c(=O)n(Cc3cccc(OC)c3)c2n1,active: 3.98 µM,
O=C1C(=O)c2ccccc2C(O)=C1C(C1=C(O)c2ccccc2C(=O)C1=O)c1ccc(Cl)cc1,"inconclusive [inhibitor, partial curve]",
COc1ccccc1CNc1ncncc1-c1cccc(NS(C)(=O)=O)c1,active: 0.251 µM,
CC(=O)Nc1ccc2c(c1)C(=Nc1ccc(C(=O)O)cc1)c1ccccc1-2,"inconclusive [inhibitor, partial curve]",
O=C(O)c1ccccc1C(c1ccc(O)cc1)c1ccc(O)cc1,,inactive: -7.78%
C[C@@H](C(=O)O)/C(=C/c1ccc2c(c1)OCO2)C(=O)O,"inconclusive [inhibitor, single point]",
C[C@@H]1CCCN(CP(=O)(c2ccccc2)c2ccccc2)C1,"inconclusive [inhibitor, partial curve]",
CN(C)Cc1ccccc1-c1nc(NCc2cccs2)c2ccccc2n1,"inconclusive [inhibitor, partial curve]",
C[C@@H](C(=O)Nc1ccc2ccccc2c1)[C@H]1C[C@]1(C)[C@H](NC(=O)Oc1ccc(F)cc1)c1ccccc1,active: 0.794 µM,
O=S1(=O)CCN(c2ccccc2CC(c2c[nH]c3ccccc23)c2c[nH]c3ccccc23)CC1,"inconclusive [inhibitor, partial curve]",
ClC(=Nc1cccc2ccccc12)N(c1ccccc1)c1ccccc1,"inconclusive [inhibitor, partial curve]",
COc1cccc(-c2nccc(NCc3cccc(C)c3)n2)c1,active: 3.98 µM,
O=C(c1ccco1)N1CCC[C@@]2(CCN(Cc3nccs3)C2)C1,"inconclusive [inhibitor, partial curve]",
CN(C)c1ncc2nc(-c3ccc(F)cc3)c(=O)n(Cc3ccc(F)cc3)c2n1,,inactive: 11.5%
N#CCCn1c(=O)c(-c2cccs2)nc2cnc(OCc3ccccc3)nc21,"inconclusive [inhibitor, full curve]",
O=C(c1ccc([N+](=O)[O-])cc1)[C@@H](Br)[C@@H](Br)c1ccnc2ccccc12,"inconclusive [inhibitor, partial curve]",
COc1ccc2c(c1)N(C[C@@H](C)CN(C)C)c1ccccc1S2,"inconclusive [inhibitor, partial curve]",
Cc1c(N2CCCC2)cc2c(c1NC(=O)c1ccccc1Cl)C(C)(C)CC2(C)C,"inconclusive [inhibitor, partial curve]",
CCCCC(CC)CO (stereo not given),,inactive: 6.07%
Cc1ccc(-c2nc(-c3nccc4ccccc34)oc2-c2ccccc2)cc1,"inconclusive [inhibitor, partial curve]",
